In all, about 410,000 compounds went through this assay and about 7,200 (1.8%) were called active. The inconclusive results got no clear call from the source; some entries with a clear call stand among them for comparison. The call rests on the fitted dose curve; in most records, active means well fitted activation curve with a large enough effect; inconclusive means small, poorly fitted or top-dose-only effect, or another doubt; inactive means no such curve, though single readings can be large or run the other way. Potencies of inconclusive entries are left out as doubtful fits.
Experiment: qHTS of TDP-43 Inhibitors; further: nearly all actives have a fitted effect of over 50% in size; on growth rescue (activation): % of control where 0% means no effect
Settings: TDP-43 expressing yeast growth rescue, BacTiter-Glo, 24 h; growth rescue (activation): at 46.1 µM (top of the series) unless noted
Procedure, shortened: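 Yeast expressing TDP-43 (pregrown in raffinose, seeded at OD600=0.02 in galactose medium) exposed to compounds 24 hr at 30 deg C. Growth read by BacTiter-Glo luminescence; rescue of toxicity appears as increased signal.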
Potency means the concentration at half of the fitted maximal effect; tags describe the fitted curve by direction and shape.

SMILES	Potency	growth rescue (activation)
O=c1sc2ccccc2n1COc1ccc(Cl)cc1	inconclusive [activator, partial curve]	
Cc1noc(C)c1CSc1nnc(-c2ccccc2)o1	inconclusive [activator, partial curve]	
Cc1ccc(C(=O)/C=C/N(C)C)cn1	inconclusive [activator, single point]	
O=C(NCc1cccc(Cl)c1)c1cccc(C(F)(F)F)c1	inconclusive [activator, single point]	
COc1ccc(-c2cn(-c3ccc(C)cc3C)c(=O)[nH]2)cc1OC	inconclusive [activator, partial curve]	
CCOC(=O)C1CCN(C(=O)c2ccc3c(c2)sc2nc(-c4ccc(OCC)cc4)cn23)CC1	inconclusive [activator, partial curve]	
CC(C)C(NC(=O)c1ccccc1)C(=O)NC1CCCc2ccccc21 (stereo not drawn)		inactive: 5.51%
O=C(Nc1cccc(-c2csc(Nc3cccc(C(F)(F)F)c3)n2)c1)c1ccccc1	active: 17.8 µM	
CCN(CC)c1ccc2c(c1)OC(N)=C(C#N)C2c1cccnc1 (stereo not drawn)		inactive: 14.1%
Cn1c2ccccc2c(=O)c2ccc(NCc3ccc4c(c3)OCO4)cc21	active: 15.8 µM	
CCOC(=O)[C@]12CCC=C1N(Cc1ccc(Cl)cc1Cl)C(=O)[C@H](CC(=O)NCc1cccc(C(F)(F)F)c1)C2	inconclusive [activator, partial curve, poor fit]	
CCC(C)NC(=O)CNC(=S)N(Cc1ccccc1)Cc1cccnc1 (stereo not drawn)		inactive: 15.3%
Cc1ccc(Nc2cc(-c3ccccc3)nc3ncnn23)cc1	inconclusive [activator, partial curve]	
C/C(=C\C(=S)Nc1ccccc1)Nc1cccc2ccccc12	active: 11.2 µM	
COc1ccc(C(C)=O)cc1COc1cccc2c1OC(C)(C)C2	inconclusive [activator, full curve]	
COc1ccc(C(=O)NNC(=O)c2ccc3ccccc3n2)cc1	inconclusive [activator, single point]	
CC1(C)Oc2ccc3ccc(=O)oc3c2/C(=C/Nc2ccc(O)cc2)C1=O	inconclusive [activator, full curve, poor fit]	
O=C(CN1CCN(S(=O)(=O)N2CCOCC2)CC1)Nc1cc(Cl)ccc1Cl	inconclusive [activator, full curve]	
COc1ccc(/C=C/C(=O)NC(=S)NCC2CCCO2)cc1 (stereo not drawn)	inconclusive [activator, partial curve, poor fit]	
COc1ccc(/C=C(\NC(=O)c2ccccc2)C(=O)NC2CCCCC2)cc1		inactive: -10.5%
CCCN1Cc2cccc(C(=O)Nc3ccccc3F)c2C1=O	inconclusive [activator, single point]	
COc1ccc(CN2C(=O)c3ccccc3C2=O)cc1	inconclusive [activator, single point]	
CCCC(=O)N1c2ccccc2C(=C2SC(C(=O)OC)=C(C(=O)OC)S2)C(=S)C1(C)C	inconclusive [activator, partial curve]	

SMILES	Potency	growth rescue (activation)
COc1ccccc1-c1noc(CCC(=O)Nc2cccc(C(F)(F)F)c2)n1	inconclusive [activator, single point]	
Cc1ccc2nc(C(F)(F)F)c(C#N)c(N)c2c1	inconclusive [activator, single point]	
O=S(=O)(c1ccccc1Cl)N1CCCC1c1nc(-c2ccccc2Cl)no1 (stereo not drawn)	active: 14.1 µM	
COc1cc2c(cc1NS(=O)(=O)N1CCCCC1)oc1ccccc12		inactive: 12.1%
Cc1ccc(NC(=S)N/N=C/c2c(Cl)cccc2Cl)c(C)c1	inconclusive [activator, partial curve]	
O=c1c2ccccc2nc(/C=C/c2cccnc2)n1Cc1ccccc1		inactive: 14.2% [at 9.22 µM]
Cc1cccc(C(=O)NC(=S)NNC(=O)COc2ccc(Cl)cc2)c1	inconclusive [activator, single point]	
CCOc1ccc(NCc2cccn2-c2nnc(N3CCC(C(=O)NCCc4ccc(OCC)c(OCC)c4)CC3)s2)cc1		inactive: 9.51%
CC(=O)C1=C(c2cccc([N+](=O)[O-])c2)N(C(C)=O)n2c(C)nnc2S1	inconclusive [activator, single point]	
O=C(COC(=O)Cc1ccccc1F)NCc1ccccc1Cl	inconclusive [activator, partial curve]	
COCC(C)n1c(SCC(=O)Nc2oc(C)c3c(C)n[nH]c(=O)c23)nc2ccccc2c1=O (stereo not drawn)	inconclusive [activator, partial curve]	
Cc1cccc(N2CCN(C(=O)C3CCN(S(=O)(=O)Cc4ccccc4)CC3)CC2)c1C	inconclusive [activator, partial curve]	
CCn1cc(C(=O)Nc2ncccc2O)c(=O)c2cc(F)c(N3CCN(C(=O)c4ccco4)CC3)cc21	inconclusive [activator, full curve, poor fit]	
COc1ccccc1C(=O)Nc1nnc(S(=O)(=O)N2CCCCC2)s1	inconclusive [activator, partial curve]	
CCOC(=O)c1c(Nc2ccc(OCC)cc2)nnc(-c2ccccc2)c1-c1ccccc1		inactive: 8.33%
Cc1n[nH]c(=S)n1/N=C/c1ccccc1OCc1ccc(Cl)cc1Cl	inconclusive [activator, full curve, poor fit]	
COc1ccc(Cl)cc1NC(=O)c1c(NCc2cccnc2)sc2c1CCCC2	inconclusive [activator, partial curve]	
CC(C)(C)OC(=O)N1CCC(c2c(C(=O)NCCc3ccsc3)cnn2-c2ccc(F)cc2F)CC1	inconclusive [activator, partial curve]	
COc1ccc(NC(=O)CSCC(=O)Oc2c(OC)cccc2OC)cc1		inactive: 12.4%
O=C1C=C(c2ccc(CO)cc2)C[C@@H](c2ccc3c(c2)OCO3)C1	active: 12.6 µM	
OCC1OC(n2cnc3c(SCc4ccccc4)ncnc32)C(O)C1O (stereo not drawn)		inactive: 0%
O=C(CSc1c2c(nc3ccc(Cl)cc13)CCCC2)N1CCN(c2ccc(Cl)cc2)CC1	active: 17.8 µM	
CSc1ccc(CCNS(=O)(=O)c2cc(-c3cc(C)no3)ccc2C)cc1	inconclusive [activator, full curve, poor fit]	

SMILES	Potency	growth rescue (activation)
COc1ccc(Cn2nc3n(c2=O)-c2ccccc2OC3)cc1	active: 14.1 µM	
Cc1c(Cl)cccc1NC(=S)N(Cc1cccs1)C1CCCC1	inconclusive [activator, single point]	
COc1ccc(NC(=O)CCCCCN2C(=O)c3cccc([N+](=O)[O-])c3C2=O)c(OC)c1		inactive: 21.9%
O=C(Nc1ccccc1)c1cc2c(-c3ccccc3)nn(-c3ccccc3)c2s1		inactive: 16.3%
COc1cc(C(C#N)N2N=C(c3ccccc3)CC2c2ccccc2)ccc1O (stereo not drawn)	inconclusive [activator, single point]	
COc1ccc([C@H]2CC(=O)C=C(c3ccc(OC)c(F)c3)C2)cc1	inconclusive [activator, single point]	
CCN(CC)C(=O)CN1C(=O)C2(OCC(C)(c3ccccc3)CO2)c2ccccc21 (stereo not drawn)	inconclusive [activator, single point]	
CCOC(=O)CC(=O)CSc1nc2ccc(OC)cc2cc1C	inconclusive [activator, single point]	
CC(C)=C1SC(N2CCN(c3ccc(Cl)cc3)CC2)=NC1=O	inconclusive [activator, partial curve]	
CCOC(=O)C1CCN(Cc2nc(-c3ccc(OC)c(OC)c3)no2)CC1	inconclusive [activator, full curve, poor fit]	
Cc1cc(C)c(S(=O)(=O)ON2C(=O)c3ccccc3C2=O)cc1C	inconclusive [activator, single point]	
CCOC(=O)c1cn(Cc2cccc(Cl)c2)nn1	inconclusive [activator, partial curve]	
Cc1ccc(-n2nc(-c3ccc(OC(F)(F)F)cc3)cc2N)cc1C	inconclusive [activator, partial curve]	
Cn1cccc1/C=C1\SC(=S)N(NC(=O)c2cccc(Cl)c2)C1=O	inconclusive [activator, partial curve]	
Cn1c(NC(=S)Nc2ccccc2)nc2ccccc21	inconclusive [activator, single point]	
Cc1cccc(Nc2nc(-c3ccc(O)c(O)c3)cs2)n1		inactive: 5.18%
COc1ccccc1-c1cc(NC(C)=O)c2ncc(-c3ccccc3)n2c1	inconclusive [activator, single point]	
O=C(CN1C(=O)COc2ccc(S(=O)(=O)NC3CCCC3)cc21)Nc1ccc(F)c(Cl)c1		inactive: -3.63%
COc1cc2c(cc1OC)C(C)N(C(=O)c1cccc([N+](=O)[O-])c1)CC2 (stereo not drawn)	active: 12.6 µM	
Cc1ccc(-n2nc(C)c(C(=O)N3CCN(C(=O)c4ccco4)CC3)c2-n2cccc2)cc1	inconclusive [activator, single point]	
CCCCSc1nc(C)c(C(C)=O)cc1C#N	inconclusive [activator, single point]	
CC1(c2nnc(-c3ccc(F)cc3)o2)CC(c2cccc(Cl)c2)=NO1 (stereo not drawn)	inconclusive [activator, single point]	
